This is an account of results in the supplement of paper PMC9446081.

The structures appear in SMILES notation. About 220 (0.56%) of roughly 39,000 compounds showed activity. This is one part of the list.
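Note: static incubation at 37 °C against the wild-type strain, values averaged over two biological replicates.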

This assay deals with Escherichia coli K-12 BW25113. In words: relative growth (OD600 normalised to plate interquartile mean) (fraction); higher = less growth inhibition, active = 0.2 or less. The note with it: 50 µM; LB; incubation time: overnight (16-24 h).
In the case of `C[C@H]1CN([C@@H](C)CO)C(=O)c2cccc(NC(=O)Nc3cccc4ccccc34)c2O[C@H]1CN(C)C(=O)Nc1ccc(F)cc1`, the relative growth is inactive: 0.986. With `OCc1ccccc1O`, the relative growth is inactive: 1.14. For the molecule `C[C@@H]1CN([C@H](C)CO)C(=O)Cc2cc(NC(=O)CCC(F)(F)F)ccc2O[C@@H]1CN(C)Cc1ccc(-c2ccccc2)cc1`, the relative growth was inactive: 0.994. Turning to `Cn1nccc1CO`, the relative growth is inactive: 0.994. Take `C[C@H]1CN([C@@H](C)CO)C(=O)c2cc(NS(=O)(=O)c3cccs3)ccc2O[C@H]1CN(C)S(=O)(=O)c1ccccc1`: the relative growth is inactive: 0.99. On to `C[C@H](CO)N1C[C@H](C)[C@@H](CN(C)S(=O)(=O)c2cn(C)cn2)Oc2ncc(C3=CCCCC3)cc2C1=O`, for which the relative growth was inactive: 0.974.

Consider `Cc1ccc(S[C@]2(C(=O)NCc3ccccc3)CC(=O)N(Cc3ccccc3C(F)(F)F)[C@@H]2c2ccc(CO)cc2)cc1`, for which the relative growth is inactive: 1.03. Turning to `CC(=O)N(C)C[C@@H]1Oc2cc(C#CCN(C)C)ccc2S(=O)(=O)N([C@@H](C)CO)C[C@H]1C`, the relative growth was inactive: 0.99.

Consider `C[C@@H]1CN([C@H](C)CO)C(=O)Cc2cc(NC(=O)c3ccncc3)ccc2O[C@@H]1CN(C)S(=O)(=O)c1cn(C)cn1`, for which the relative growth was inactive: 1.01. For `C[C@H](CO)N1C[C@H](C)[C@@H](CN(C)C(=O)c2ccccc2)Oc2cc(C#C[C@@H](C)O)ccc2S1(=O)=O`, the relative growth is inactive: 1.01. The result for `C[C@@H]1CN([C@H](C)CO)C(=O)c2cc(NC(=O)Nc3cccc4ccccc34)ccc2O[C@@H](C)CCCCO[C@@H]1CN(C)Cc1ccccc1` reads inactive: 0.979. On to `C[C@H](CO)N1C[C@H](C)[C@@H](CN(C)C(=O)c2ccc3c(c2)OCO3)Oc2cc(-c3ccncc3)ccc2S1(=O)=O`, for which the relative growth was inactive: 0.998. Take `C[C@H]1CCCCO[C@H](CN(C)S(=O)(=O)c2ccc(Cl)cc2)[C@@H](C)CN([C@@H](C)CO)C(=O)c2cc(NC(=O)c3ccncc3)ccc2O1`: the relative growth was inactive: 0.979. Next, `Cc1ccc(C(=O)Nc2cccc(C(F)(F)F)c2)cc1Nc1nc(-c2cccnc2)nc2c1cnn2C`: inactive: 0.842. Regarding `C[C@H](CO)N1C[C@H](C)[C@@H](CN(C)S(=O)(=O)c2cn(C)cn2)Oc2ccc(NC(=O)Cn3cnnn3)cc2C1=O`, the relative growth was inactive: 1. For the molecule `COc1c(N2CCNC(C)C2)c(F)cc2c(=O)c(C(=O)O)cn(C3CC3)c12` (centres undefined), the relative growth was active: 0.0431. For `CN(C)C(=O)CN1CCN(C)C(=O)[C@]12CCN(c1ncc(F)cn1)C2`, the relative growth was inactive: 1. Next, `C[C@@H]1CCCCO[C@H](CN(C)S(C)(=O)=O)[C@@H](C)CN([C@H](C)CO)C(=O)c2cc(NS(C)(=O)=O)ccc2O1`: inactive: 1; `CC(CCC(=O)O)C1CCC2C3CCC4CC(O)CCC4(C)C3CCC12C` (centres undefined): inactive: 0.822; `C[C@H]1CN([C@@H](C)CO)C(=O)c2cc(C#CCc3ccccc3)cnc2O[C@H]1CN(C)C(=O)Cc1cccnc1`: inactive: 0.994. Consider `COCCOC(=O)N1C(=O)[C@@]2(c3cc(C#CC4=CCCCC4)ccc31)[C@H](c1ccccc1OCCO)N1[C@H](c3ccccc3)[C@H](c3ccccc3)OC(=O)[C@H]1[C@@H]2C(=O)N1CCc2cc(OC)c(OC)cc2C1`, for which the relative growth was inactive: 1.07. Turning to `C[C@@H]1CN([C@H](C)CO)C(=O)c2cccc(NC(=O)Nc3ccc(C(F)(F)F)cc3)c2O[C@H]1CN(C)Cc1ccccc1`, the relative growth was inactive: 0.89. In the case of `C[C@H]1CCCCO[C@H](CN(C)Cc2ccncc2)[C@@H](C)CN([C@@H](C)CO)C(=O)c2cc(NC(=O)NC3CCCCC3)ccc2O1`, the relative growth was inactive: 0.996. Next, `COc1ccc(NC(=O)Nc2ccc3c(c2)C(=O)N([C@H](C)CO)C[C@@H](C)[C@@H](CN(C)Cc2ccccc2)OCCCC[C@@H](C)O3)cc1`: inactive: 0.998; `COCC(=O)N(C)C[C@@H]1Oc2cc(C#CC(C)(C)O)ccc2S(=O)(=O)N([C@H](C)CO)C[C@@H]1C`: inactive: 1.02; `C[C@H]1CN([C@@H](C)CO)C(=O)c2cc(-c3ccc(C#N)cc3)cnc2O[C@H]1CN(C)C(=O)Nc1ccc(C(F)(F)F)cc1`: inactive: 1.01. Take `C[C@H](CO)N1C[C@H](C)[C@@H](CN(C)C(=O)Cc2ccccn2)Oc2ncc(-c3ccc(F)cc3)cc2C1=O`: the relative growth was inactive: 1.03. Consider `O=C(O)c1ccc(S(=O)(=O)N(Cc2ccc(OC(F)(F)F)cc2)c2ncc(C(F)(F)F)cc2Cl)cc1`, for which the relative growth is inactive: 0.846. As to `O=C(NCCO)c1cc2ccccc2oc1=O`, the relative growth was inactive: 1.02.

Turning to `C[C@@H]1CCCCO[C@@H](CN(C)C(=O)Nc2ccc(F)cc2)[C@H](C)CN([C@H](C)CO)C(=O)c2cc(NS(=O)(=O)c3ccc(Cl)cc3)ccc2O1`, the relative growth was inactive: 1.03. The result for `Cc1noc(C)c1NC(=O)N(C)C[C@H]1Oc2ccc(NS(=O)(=O)c3ccccc3)cc2C(=O)N([C@H](C)CO)C[C@H]1C` reads inactive: 0.984; that for `CC(C)C#Cc1ccc2c(c1)O[C@H](CN(C)C(=O)c1cnccn1)[C@H](C)CN([C@@H](C)CO)S2(=O)=O`, inactive: 0.986. Next, `C[C@H](CO)N1C[C@H](C)[C@H](CN(C)S(=O)(=O)c2ccc(C(F)(F)F)cc2)OCc2ccccc2-c2ccccc2C1=O`: inactive: 1.01. Turning to `C[C@@H]1CCCCO[C@@H](CN(C)C(=O)c2ccncc2)[C@@H](C)CN([C@H](C)CO)C(=O)c2cc(NC(=O)CCCCCC(=O)Nc3ccccc3N)ccc2O1`, the relative growth is inactive: 1.02. Consider `CN(C)CC#Cc1cncc(C(=O)NN)c1`, for which the relative growth is inactive: 1.03. On to `Cc1ccc(S(=O)(=O)Nc2ccc3c(c2)CC(=O)N([C@H](C)CO)C[C@@H](C)[C@H](CN(C)CC2CC2)O3)cc1`, for which the relative growth was inactive: 0.98. For the molecule `C[C@H](CO)N1C[C@H](C)[C@H](CN(C)Cc2ccccc2)Oc2ccc(NS(=O)(=O)c3cn(C)cn3)cc2CC1=O`, the relative growth was inactive: 1.01.

As for `CO[C@H]1CN(C)C(=O)c2cc(NC(=O)Nc3ccccc3F)ccc2OC[C@@H](C)N(Cc2ccccc2C(=O)O)C[C@H]1C`, the relative growth was inactive: 0.99. With `CON=C(C(=O)N[C@@H]1C(=O)N2C(C(=O)O)=C(CSc3nc(=O)c(O)nn3C)CS[C@H]12)c1csc(N)n1`, the relative growth is active: 0.0335.
